# Test results taken from the supplement of paper PMC10037445.
# The full ranking holds about 2,900 compounds; the median of “IRF Lucia reporter activity, fold change vs agonist alone” is about 0.9, and the highest 2% start at about 2.8. The list shows a part of the results.
# Columns and labels:
# RAW-Dual [1] = assay: IRF Lucia reporter activity, fold change vs agonist alone; cytotoxicity flag (confluency mask): not cytotoxic; higher = enhanced IRF activity
# Method in brief: (§1)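 Library stock was pin-tooled at 50 nL into 384-well plates of RAW-Dual macrophages (50,000 cells/well, DMEM), followed 1 h later by a PRR agonist, and the cells were kept at 37 °C, 5% CO2. Supernatant collected after 20 hours was read for IRF by QuantiLuc luminescence and for NF-κB by QuantiBlue absorbance at 620 nm. Reporter activity is fold change over agonist-alone wells, and a well counted as cytotoxic when its IncuCyte confluency was below 70% of agonist controls in both mask sets.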
# RAW-Dual [2] = assay: IRF Lucia reporter activity, fold change vs agonist alone; higher = enhanced IRF activity; settings: agonist: MPLA (TLR4) […]
# Method in brief: as §1
# RAW-Dual [3] = assay: IRF Lucia reporter activity, fold change vs agonist alone; cytotoxicity flag (confluency mask): cytotoxic (confluency <70% of control); higher = enhanced IRF activity
# Method in brief: as §1
# [4] = agonist: 3'3'-cGAMP (STING) 10 ug/mL
# [5] = library stock concentration (final ~1000-fold dilution): 10 mM, cytotoxicity flag (confluency mask): not cytotoxic
compound,measurement,setting,value
O=C(Nc1cccc(Br)c1)c1cccc(S(=O)(=O)N2CCCCCC2)c1 (library stock concentration (final ~1000-fold dilution): 10 mM),IRF Lucia reporter activity,RAW-Dual [1]; [4],0.151
same,IRF Lucia reporter activity,RAW-Dual [1]; agonist: LPS (TLR4) 0.1 ug/mL,1.27
O=C(Nc1cccc(Br)c1)c1cccc(S(=O)(=O)N2CCCCCC2)c1,IRF Lucia reporter activity,RAW-Dual [2]; [5],1.09
O=C(O)Cn1nnc(-c2cc(N3CCC(Oc4cc(F)ccc4Br)CC3)no2)n1,IRF Lucia reporter activity,RAW-Dual [2]; [5],0.911
O=C(O)Cn1nnc(-c2cc(N3CCC(Oc4cc(F)ccc4Br)CC3)no2)n1 (library stock concentration (final ~1000-fold dilution): 10 mM),IRF Lucia reporter activity,RAW-Dual [1]; [4],0.908
same,IRF Lucia reporter activity,RAW-Dual [1]; agonist: LPS (TLR4) 0.1 ug/mL,1.05
CNCCCC1c2ccccc2C=Cc2ccccc21.Cl (library stock concentration (final ~1000-fold dilution): 10 mM),IRF Lucia reporter activity,RAW-Dual [3]; [4],0.217
same,IRF Lucia reporter activity,RAW-Dual [3]; agonist: LPS (TLR4) 0.1 ug/mL,1.38
CCCc1nn(C)c2c(=O)[nH]c(-c3cc(S(=O)(=O)N4CCN(C)CC4)ccc3OCC)nc12 (library stock concentration (final ~1000-fold dilution): 10 mM water),IRF Lucia reporter activity,RAW-Dual [1]; [4],1.12
same,IRF Lucia reporter activity,RAW-Dual [1]; agonist: LPS (TLR4) 0.1 ug/mL,0.887
CCCc1nn(C)c2c(=O)[nH]c(-c3cc(S(=O)(=O)N4CCN(C)CC4)ccc3OCC)nc12,IRF Lucia reporter activity,"RAW-Dual [2]; library stock concentration (final ~1000-fold dilution): 10 mM water, cytotoxicity flag (confluency mask): not cytotoxic",1.11
CC(OC1OCCN(Cc2nn(P(=O)(O)O)c(=O)[nH]2)C1c1ccc(F)cc1)c1cc(C(F)(F)F)cc(C(F)(F)F)c1.CNCC(O)C(O)C(O)C(O)CO.CNCC(O)C(O)C(O)C(O)CO (centres undefined) (library stock concentration (final ~1000-fold dilution): 10 mM),IRF Lucia reporter activity,RAW-Dual [1]; [4],1.41
same,IRF Lucia reporter activity,RAW-Dual [1]; agonist: LPS (TLR4) 0.1 ug/mL,0.997
CC(OC1OCCN(Cc2nn(P(=O)(O)O)c(=O)[nH]2)C1c1ccc(F)cc1)c1cc(C(F)(F)F)cc(C(F)(F)F)c1.CNCC(O)C(O)C(O)C(O)CO.CNCC(O)C(O)C(O)C(O)CO (centres undefined),IRF Lucia reporter activity,RAW-Dual [2]; [5],0.972
O=C(O)[C@H](O)Cc1ccc(O)c(O)c1 (library stock concentration (final ~1000-fold dilution): 10 mM water),IRF Lucia reporter activity,RAW-Dual [1]; [4],1.69
same,IRF Lucia reporter activity,RAW-Dual [1]; agonist: LPS (TLR4) 0.1 ug/mL,0.93
CCCN(CCC)CCc1cccc2c1CC(=O)N2.Cl,IRF Lucia reporter activity,RAW-Dual [2]; [5],1.04
CCCN(CCC)CCc1cccc2c1CC(=O)N2.Cl (library stock concentration (final ~1000-fold dilution): 10 mM),IRF Lucia reporter activity,RAW-Dual [1]; [4],1.05
same,IRF Lucia reporter activity,RAW-Dual [1]; agonist: LPS (TLR4) 0.1 ug/mL,0.939
Cn1cc(C2=C(c3cccc(N)c3)C(=O)NC2=O)c2ccccc21 (library stock concentration (final ~1000-fold dilution): 10 mM),IRF Lucia reporter activity,RAW-Dual [1]; [4],0.134
same,IRF Lucia reporter activity,RAW-Dual [1]; agonist: LPS (TLR4) 0.1 ug/mL,0.0467
[O-][n+]1cccc(-c2nc3c(Cl)cccc3cc2C(Nc2ncnc3cccnc23)C(F)(F)F)c1 (centres undefined) (library stock concentration (final ~1000-fold dilution): 10 mM),IRF Lucia reporter activity,RAW-Dual [1]; [4],0.374
same,IRF Lucia reporter activity,RAW-Dual [1]; agonist: LPS (TLR4) 0.1 ug/mL,1.75
O=C(CSc1nc2c(c(=O)n1-c1ccccc1)SCC2)Nc1ccc(-c2ccccc2)cn1,IRF Lucia reporter activity,RAW-Dual [2]; [5],1.02
O=C(CSc1nc2c(c(=O)n1-c1ccccc1)SCC2)Nc1ccc(-c2ccccc2)cn1 (library stock concentration (final ~1000-fold dilution): 10 mM),IRF Lucia reporter activity,RAW-Dual [1]; [4],1.21
same,IRF Lucia reporter activity,RAW-Dual [1]; agonist: LPS (TLR4) 0.1 ug/mL,0.971
Cc1cc(C=Cc2ccc3cc(N(C)C)ccc3[n+]2C)c(C)n1-c1ccccc1,IRF Lucia reporter activity,"RAW-Dual [2]; library stock concentration (final ~1000-fold dilution): 10 mM, cytotoxicity flag (confluency mask): cytotoxic (confluency <70% of control)",0.168
Cc1cc(C=Cc2ccc3cc(N(C)C)ccc3[n+]2C)c(C)n1-c1ccccc1 (library stock concentration (final ~1000-fold dilution): 10 mM),IRF Lucia reporter activity,RAW-Dual [3]; [4],0.0366
same,IRF Lucia reporter activity,RAW-Dual [3]; agonist: LPS (TLR4) 0.1 ug/mL,0.0247
